Reference: PubChem BioAssay AID2451 (National Center for Advancing Translational Sciences (NCATS), 2010)
About 2,100 (0.72%) of roughly 290,000 compounds were called active. Inconclusive means that the source gave no clear call. Such entries were picked first, then a sample of the others. Calls come from the whole dose curve; as a rule, active = well fitted inhibition curve with a large enough effect; inconclusive = small, poorly fitted or top-dose-only effect, or effect the other way; inactive = flat fitted curve, though single readings scatter. Potencies beside an inconclusive call are fits to weak or partial responses and may not hold up.

Molecular target: Fructose-bisphosphate aldolase (Giardia intestinalis (strain ATCC 50803 / WB clone C6)) (UniProt A8B2U2)
UniProt A8B2U2, sequence (A8B2U2 whole entry, looked up): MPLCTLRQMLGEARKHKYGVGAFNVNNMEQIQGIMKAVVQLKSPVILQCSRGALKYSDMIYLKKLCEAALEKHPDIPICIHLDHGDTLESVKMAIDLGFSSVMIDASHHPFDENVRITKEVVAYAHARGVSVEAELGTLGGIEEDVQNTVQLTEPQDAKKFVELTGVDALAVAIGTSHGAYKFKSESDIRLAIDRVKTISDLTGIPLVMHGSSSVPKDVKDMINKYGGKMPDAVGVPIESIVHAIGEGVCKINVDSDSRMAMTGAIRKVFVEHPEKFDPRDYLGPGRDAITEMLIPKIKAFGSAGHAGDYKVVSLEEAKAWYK
Test: qHTS Assay for Inhibitors of Fructose-1,6-bisphosphate Aldolase from Giardia Lamblia; note: nearly all actives have a fitted effect of over 55% in size
Settings: purified Giardia FBPA; activity, negative = inhibition: at 59.6 µM (top of the series) unless noted
In short: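 Giardia FBPA (40 nM reagent) was preincubated 10 min at RT with compound (up to 57.5 uM final), then substrate plus GAPDH/TPI/NAD/arsenate coupling system with diaphorase/resazurin was added; resorufin fluorescence (525/598 nm) was read after 20 min.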
% is set by controls: 0 for no effect and ±100 for the full control effect; potency is the fitted concentration of half-maximal effect; tags give direction and shape of the fitted curve.

SMILES | activity, negative = inhibition | Potency
O=C(CC1CS(=O)(=O)CC1CC(=O)Oc1ccccc1F)Oc1ccccc1F (centres undefined) | inactive: 0.914% | –
COc1ccc(CNC(=S)NCc2ccc(F)cc2)cc1OC | inactive: -4.17% | –
CCOc1cc2[nH]c(=S)n(CCCC(=O)N3CCC4(CC3)OCCO4)c(=O)c2cc1OCC | – | inconclusive: 15.8 µM [inhibitor, single point]
CCc1ccc2c(c1)C1(NN=C(c3ccccc3)S1)C(=O)N2 (centres undefined) | – | active: 15.8 µM
CN(CC(=O)NC(=O)NCc1ccco1)Cc1nc2ccccc2c(=O)[nH]1 | – | inconclusive: 5 µM [inhibitor, partial curve]
O=C(Oc1cc(=O)oc2c1c(=O)n1c3c(cccc23)CC1)c1ccc(F)cc1 | inactive: -15.3% | –
COc1ccc(CNCCc2ccc(Cl)cc2)cc1OCc1ccccc1 | – | inconclusive: 19.9 µM [inhibitor, partial curve]
O=C1C2CCN(CC2)[C@@H]1Cc1ccc2ccccc2c1O | – | inconclusive: 17.7 µM [inhibitor, partial curve]
COCCNC(=O)c1ccc2c(=O)n(CCCN3CCCC3=O)c(=S)[nH]c2c1 | – | inconclusive: 15.8 µM [inhibitor, partial curve]
CCc1nnc(N/N=C/c2ccc(O)c(OC)c2)n1N | – | active: 20 µM
CCOC(=O)/C(=N\Nc1ccccc1Cl)N1CCN(c2ccccc2OC)CC1 | inactive: -4.6% | –
COC(=O)C1C(O)=C(C(C)=Nc2cccc3ccccc23)C(=O)CC1(C)C (centres undefined) | – | inconclusive: 15.8 µM [inhibitor, single point]
CCCCn1c(SCC(=O)c2ccc(OC)cc2OC)nc2cc(S(N)(=O)=O)ccc21 | – | inconclusive: 17.7 µM [inhibitor, single point]
Cn1c(NNC(=O)c2c(F)cccc2F)cc(=O)n(C)c1=O | – | inconclusive: 7.92 µM [inhibitor, partial curve]
CCOC(=O)c1c(C)c(C(=O)NCCOC)c(C)n1CC | inactive: 7.18% | –
COc1ccc(CC2(CO)CCN(Cc3cnn(-c4ccc(F)cc4)c3)CC2)cc1 | inactive: 1.22% | –
COc1cccc(CN(C)CC(=O)NCc2ccc(C)cc2)c1 | – | inconclusive: 25.1 µM [inhibitor, partial curve]
Cc1cccc(Nc2ncnc3ccccc23)c1 | inactive: -20.2% | –
CCCCn1c(C)cc2cc(O)ccc21 | – | inconclusive: 15.8 µM [inhibitor, partial curve]
CCN(CC)C(=S)NC(=O)c1ccc(F)cc1 | – | inconclusive: 15.8 µM [inhibitor, partial curve]
Cc1ccc(C(=O)c2coc3ccc(O)c(CN(C)C)c23)cc1 | – | inconclusive: 20 µM [inhibitor, single point]
CCOC(=O)c1csc(-c2ccc([N+](=O)[O-])cc2)n1 | inactive: 2.57% | –
Cc1cccnc1Nc1nc(-c2ccccn2)cs1 | – | inconclusive: 17.7 µM [inhibitor, single point]
O=C(NNC(=S)NCc1ccccc1)c1cccnc1 | – | inconclusive: 0.631 µM [inhibitor, full curve]
CCOC(=O)Cc1cc(=O)n2[nH]c(C(C)(C)C)cc2n1 | – | inconclusive: 17.7 µM [inhibitor, partial curve]

SMILES | activity, negative = inhibition | Potency
N#C/C(=C\c1ccc(N2CCCCC2)o1)C(N)=O | inactive: -14.7% | –
COc1ccccc1CCn1c(=O)c(-c2cccs2)nc2cncnc21 | inactive: -0.51% | –
CN(C)c1ccc(NC(=S)c2ccc3ccccc3n2)cc1 | inactive: -8.35% | –
Nc1c2nc(-c3ccccc3Cl)[nH]c(=O)c2nc(=O)n1-c1ccccc1 | inactive: -1.61% | –
O=C(Cc1ccccc1Nc1c(Cl)cccc1Cl)OCO/N=[N+](\[O-])N1CCCC1 | – | inconclusive: 15.8 µM [inhibitor, partial curve]
CN1CCN(CC(=O)N/N=C/c2ccc(F)c(F)c2)CC1 | – | inconclusive: 19.9 µM [inhibitor, partial curve]
CCc1nnc(NS(=O)(=O)c2ccc(NC(=O)c3ccc(C#N)cc3)cc2)s1 | – | inconclusive: 22.4 µM [inhibitor, single point]
CC(NCc1cccs1)C(=O)NC1CCCCC1 (centres undefined) | – | inconclusive: 15.8 µM [inhibitor, partial curve]
O=C(NCCCN1CCOCC1)c1sc2cc([N+](=O)[O-])ccc2c1Cl | – | active: 2.51 µM
Cc1cc(C)c(NC(=S)N(CCCN2CCOCC2)Cc2cccnc2)c(C)c1 | – | inconclusive: 17.7 µM [inhibitor, single point]
Cc1ccnc2nc(C(=O)Nc3nnc(-c4ccccc4)o3)nn12 | – | inconclusive: 15.8 µM [inhibitor, single point]
O=C(O)CCSCCCN1C(=O)c2cccc3cccc(c23)C1=O | – | inconclusive: 19.9 µM [activator, partial curve]
Cc1ccc(Nc2nc(-c3sc(N)nc3C)cs2)cc1 | – | inconclusive: 17.8 µM [inhibitor, partial curve]
CCOc1cc(/C=C2\CN(C)C/C(=C\c3ccc(O)c(OCC)c3)C2=O)ccc1O | – | inconclusive: 25.1 µM [inhibitor, partial curve]
O=C(O)[C@@H]1CSC2(CCSC2)N1 (some centres undefined) | – | inconclusive: 17.7 µM [inhibitor, single point]
Cc1c(C(=O)c2ccccc2)c2ccccn2c1CCc1ccccn1 | – | inconclusive: 15.8 µM [inhibitor, single point]
CCOc1ccc(NC(c2ccccn2)c2oc(CO)cc(=O)c2O)cc1 (centres undefined) | – | inconclusive: 19.9 µM [inhibitor, partial curve]
O=C(NNC(=O)c1cc2ccccc2cc1O)Nc1ccc(Br)cc1 | inactive: 11.2% | –
CCOc1ccc(NC(=S)Nc2cccc3cnccc23)cc1 | – | inconclusive: 1.77 µM [inhibitor, full curve]
CCn1c(-c2nn(-c3ccccc3)ccc2=O)n[nH]c1=S | – | inconclusive: 17.7 µM [inhibitor, single point]
O=C(O)c1cccc(-n2cccc2/C=C2/NC(=O)N(c3ccc(Cl)cc3)C2=O)c1 | – | inconclusive: 15.8 µM [inhibitor, single point]
C=CCN=C(NC#N)SCC(=O)c1cccc(OC)c1 | – | inconclusive: 11.2 µM [inhibitor, partial curve]
CCSc1nc2sc3c(c2c2[n+]1CC(CBr)O2)CCCC3 (centres undefined) | – | inconclusive: 22.3 µM [inhibitor, single point]
COc1cccc(CNC2CCCc3ccccc32)c1OC (centres undefined) | – | inconclusive: 19.9 µM [inhibitor, partial curve]
COCCCNC(=S)N1CCN(Cc2ccc3c(c2)OCO3)CC1 | – | inconclusive: 19.9 µM [inhibitor, partial curve]

SMILES | activity, negative = inhibition | Potency
C=C(C)CNC(=S)N/N=C/c1ccc(N2CCOCC2)cc1 | inactive: -8.61% | –
Cc1ccc(-c2cnc(-c3ccncc3)o2)cc1 | inactive: 1.14% | –
CN(C)CCOc1cccc(Br)c1 | – | inconclusive: 19.9 µM [inhibitor, partial curve]
CCc1ccccc1NC(=O)CCS(=O)(=O)c1ccc(OC)cc1 | inactive: -7.51% | –
COc1ccc2c(c1)c(C(=O)N/N=C/c1cccc(Br)c1)c(C)n2C | – | active: 19.9 µM
CN(Cc1ccco1)c1ncnc2ccc(-c3cccc(C#N)c3)cc12 | – | inconclusive: 35.4 µM [inhibitor, single point]
O=c1cc(N=Nc2ccc(Cl)cc2)[nH]c(=O)[nH]1 | – | inconclusive: 7.06 µM [inhibitor, partial curve]
CC1=NN(c2ccccc2)C(=O)C1N=Nc1ccc(S(N)(=O)=O)cc1 (centres undefined) | – | inconclusive: 12.6 µM [inhibitor, partial curve]
O=C(COc1c(Br)cc(Br)c2cccnc12)N1CCCCC1 | – | inconclusive: 15.8 µM [inhibitor, partial curve]
COc1cc2c(C#N)c(N3CCCC3)nc(N)c2c(N)n1 | – | active: 1.26 µM
CCC(CC)NCC(O)COc1ccc(Br)cc1 (centres undefined) | – | inconclusive: 17.7 µM [inhibitor, partial curve]
Cc1cc(C)c(S(=O)(=O)NC(CC(=O)O)c2cccc([N+](=O)[O-])c2)c(C)c1 (centres undefined) | – | inconclusive: 17.7 µM [activator, partial curve]
O=C(Cc1ccccc1)NCC(=O)N1CCCCC1 | inactive: -2.41% | –
COc1cccc(NC(=S)Nc2ccc(O)cc2)c1 | – | active: 17.7 µM
O=C(NCC1CCCO1)C(C(=O)c1ccc(F)cc1)n1ccccc1=O (centres undefined) | – | inconclusive: 17.7 µM [inhibitor, partial curve]
O=C(Nc1ccc2[nH]c3c(c2c1)CCCC3)c1ccco1 | – | inconclusive: 11.2 µM [inhibitor, partial curve]
COc1ccc(OC)c(NC(=O)CCN2CCN(Cc3ccccc3)CC2)c1 | – | inconclusive: 15.8 µM [inhibitor, single point]
C=CCNC(=S)NNc1nc2sc3c(c2c(=O)[nH]1)CC(C)(C)OC3 | – | active: 1.26 µM
CSc1ccc(CN2CCCCCC2)cc1 | – | inconclusive: 17.8 µM [inhibitor, partial curve]
COc1cc(C(=O)NNC(=S)NC(=O)c2ccc(Cl)cc2)cc(OC)c1OC | – | inconclusive: 8.89 µM [activator, partial curve]
Cc1cccc(/C=N/NC(=O)c2ccncc2)n1 | – | inconclusive: 20 µM [inhibitor, partial curve]
Cc1cc(C)c2nc3sc(C(=O)N4CCOCC4)c(N)c3cc2c1 | – | inconclusive: 14.1 µM [inhibitor, partial curve]
COc1ccc(Cc2n[nH]c(=S)n2C)cc1Br | – | inconclusive: 25.1 µM [inhibitor, single point]
CN(C)S(=O)(=O)c1cc(NC(=O)CNCc2ccccc2)ccc1Cl | – | inconclusive: 25.1 µM [inhibitor, partial curve]
